# Hit rate of the full screen: of about 310,000 compounds, about 2,200 (0.71%) showed an effect of 50% or more. Effects have a minus sign here. This is one part of the list.
# Biological target: human ether-à-go-go-related gene (hERG) potassium channel (human, UniProt Q12809)
# Assay: primary screen, population patch clamp on CHO cells stably expressing hERG
# human ether-à-go-go-related gene (hERG) potassium channel, sequence (Q12809 whole entry, looked up): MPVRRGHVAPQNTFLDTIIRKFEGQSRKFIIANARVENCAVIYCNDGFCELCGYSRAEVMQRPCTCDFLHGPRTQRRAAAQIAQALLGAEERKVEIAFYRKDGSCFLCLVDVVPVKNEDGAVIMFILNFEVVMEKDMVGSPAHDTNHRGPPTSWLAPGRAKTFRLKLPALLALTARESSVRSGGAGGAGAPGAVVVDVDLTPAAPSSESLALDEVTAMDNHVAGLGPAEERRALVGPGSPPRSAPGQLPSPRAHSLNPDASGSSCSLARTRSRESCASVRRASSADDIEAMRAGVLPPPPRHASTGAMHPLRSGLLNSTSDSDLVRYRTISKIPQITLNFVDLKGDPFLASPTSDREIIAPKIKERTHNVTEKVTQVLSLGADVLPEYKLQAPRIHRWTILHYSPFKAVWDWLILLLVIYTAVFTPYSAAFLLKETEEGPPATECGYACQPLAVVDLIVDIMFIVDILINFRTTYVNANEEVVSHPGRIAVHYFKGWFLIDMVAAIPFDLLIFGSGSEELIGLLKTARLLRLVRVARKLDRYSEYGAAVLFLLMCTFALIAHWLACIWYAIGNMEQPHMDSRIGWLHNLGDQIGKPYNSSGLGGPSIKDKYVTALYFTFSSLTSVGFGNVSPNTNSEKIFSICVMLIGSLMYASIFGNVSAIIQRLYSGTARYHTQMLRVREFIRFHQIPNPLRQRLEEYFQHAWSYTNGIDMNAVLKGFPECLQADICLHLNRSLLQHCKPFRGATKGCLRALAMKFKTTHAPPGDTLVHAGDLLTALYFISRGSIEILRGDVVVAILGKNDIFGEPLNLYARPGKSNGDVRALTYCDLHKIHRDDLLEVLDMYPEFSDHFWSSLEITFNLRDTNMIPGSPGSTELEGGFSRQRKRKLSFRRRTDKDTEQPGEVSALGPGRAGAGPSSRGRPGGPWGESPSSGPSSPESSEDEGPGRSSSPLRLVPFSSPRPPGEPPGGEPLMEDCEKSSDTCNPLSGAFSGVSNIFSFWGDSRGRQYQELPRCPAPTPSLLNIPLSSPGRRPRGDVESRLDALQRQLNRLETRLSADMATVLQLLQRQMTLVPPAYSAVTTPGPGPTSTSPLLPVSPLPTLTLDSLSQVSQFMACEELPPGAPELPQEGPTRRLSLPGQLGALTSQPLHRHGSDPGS
row,Structure (SMILES),"hERG current change (%, negative = inhibition) at 1uM [%]"
1,Cc1cc(C)nc(Nc2ccc(N3CCCC3)cc2)n1,7.1
2,CN(Cc1nnc(SCC(=O)NCCc2ccccc2)n1C)S(=O)(=O)c1ccccc1,-10.3
3,CN1CCN(S(=O)(=O)c2ccc(N3CCN(c4ccc(O)cc4)CC3)c([N+](=O)[O-])c2)CC1,-1.25
4,CC(C)NS(=O)(=O)c1ccc(NC(=S)NC(=O)c2cccc([N+](=O)[O-])c2)cc1,3.95
5,COc1ccc2c(c1OC)C(=O)OC2Nc1ccccn1 (centres unmarked),11.5
6,Cc1cccc(Nc2nnc(-c3ccc(C(=O)N4C[C@H]5C[C@H](C4)c4cccc(=O)n4C5)cc3)c3ccccc23)c1,10.7
7,CCOCCc1nnc(NC(=O)c2cc(OC)c(OC)c(OC)c2)s1,10.7
8,O=S(=O)(CCSc1nc2ccccc2s1)c1nc2ccccc2s1,9.09
9,CC(=O)c1cccc(S(=O)(=O)Nc2cccnc2)c1,11.9
10,O=S(=O)(Nc1nc2ccccc2[nH]1)c1ccc(Cl)cc1,-7.9
11,CC(C)(C)c1ccc(C(=O)Nc2ccc(C=C(C#N)C#N)cc2)cc1,10.6
12,O=C(COC(=O)c1ccccc1NC(=O)c1ccccc1)c1cccc([N+](=O)[O-])c1,10.9
13,O=C(O)C1(c2ccccc2)CCN(S(=O)(=O)c2ccccc2)CC1,14.5
14,CCc1sc(C(=O)N2CCN(CC(=O)Nc3cccc(F)c3)CC2)cc1C,-12.1
15,CC(C)=CCN1CCN(Cc2cn[nH]c2C2CCCCC2)CC1CCO (centres unmarked),8.82
16,COC(=O)C1=CNC=C(C(=O)OC)C1c1ccc(Cl)cc1,0.214
17,CN(Cc1ccccc1NS(=O)(=O)c1ccc2ccccc2c1)C1CCCCC1.Cl,-3.79
18,CCCCCCC(C)NC(=S)Nc1cc(S(=O)(=O)N(C)C)ccc1C (centres unmarked),-4.97
19,Cc1cccc(C(=O)NC(=S)NNC(=O)c2ccc(Cl)cc2)c1,9.18
20,Cc1ccc(C(=O)Nc2ccccc2NC(=O)c2ccc(C)o2)o1,6.24
21,COc1ccc(C(=O)N/N=C\c2coc3ccc(Cl)cc3c2=O)cc1,10.8
22,O=C(COC(=O)c1cc([N+](=O)[O-])ccc1N1CCOCC1)Nc1ccc(Cl)cc1,15.2

row,Structure (SMILES),"hERG current change (%, negative = inhibition) at 1uM [%]"
1,CCCn1c(C)cc(C(=O)COc2ncnc3sccc23)c1C,6.19
2,O=C(c1cnn2c(C(F)F)cc(-c3ccccc3)nc12)N1CCCCC1c1cccnc1 (centres unmarked),-9.47
3,CC(NC(=S)NC1CCCCC1)c1ccccc1 (centres unmarked),9.39
4,N#Cc1cnc(NN)nc1,13.6
5,COC(=O)c1ccc(CSc2cc(C)c3ccccc3n2)o1,11.4
6,Clc1ccc(-c2nc3ncccn3c2Cl)cc1,6.72
7,Cc1cc(C)cc(-n2ccn(CC(=O)NCCc3ccccc3)c(=O)c2=O)c1,11.2
8,O=C(c1ccc(Cl)cc1)C1CCN(C(=O)c2ccc(F)cc2)CC1,1.39
9,COc1ccc(CNC(=O)CSc2nnnn2-c2ccccc2)cc1,-8.26
10,CN(Cc1ccccc1)C(=O)N1CCOCC1,17.7
11,O=C(OCC#CCSc1nnc(-c2cccc3ccccc23)o1)c1cccs1,7.2
12,O=c1c2ccccc2nc(CSc2ncnc3nc[nH]c23)n1-c1cccc(C(F)(F)F)c1,-2.15
13,O=[N+]([O-])c1cc([N+](=O)[O-])c(N2CCOCC2)cc1NCc1ccccc1,11.4
14,COC(OC)c1nc(SCC(=O)Nc2cccc(Cl)c2)ncc1C(=O)O,18.2
15,NC(=O)CC(NC(=O)c1ccccc1)c1ccc(N2CCN(c3ccccn3)CC2)c([N+](=O)[O-])c1 (centres unmarked),7.65
16,C=CCNc1oc(-c2cccs2)nc1C#N,4.54
17,Cc1ccccc1OCCSc1nnc(C)n1-c1ccccc1,3.75
18,Cc1ccc(NC(=O)CN2C(=O)CSc3ccc(S(=O)(=O)N4CCCCC4)cc32)cc1,9.42
19,O=C(NCCN1CCOCC1)c1cnn2c1NC(c1cccs1)CC2C(F)(F)F (centres unmarked),9.71
20,O=C(CSc1ncnc2ccccc12)c1ccc2c(c1)OCCO2,3.24
21,CCC(=O)OCCn1c(Br)nc2c1c(=O)[nH]c(=O)n2C,-4.46
22,COc1ccc(S(=O)(=O)N(CC(=O)N/N=C/c2ccc(C(=O)O)cc2)Cc2ccccc2)cc1OC,9.77

row,Structure (SMILES),"hERG current change (%, negative = inhibition) at 1uM [%]"
1,COC(=O)COc1cc(Cl)c(C=O)cc1OC,15.5
2,CCOc1ccc(C(C)=O)cc1CSc1nc2nc(C)cc(C)n2n1,7.97
3,O=C(N/N=C/c1ccc(Cl)cc1)c1cc2c(s1)-c1ccccc1CC2,6.26
4,COP(=O)(OC)c1nc(-c2cccc3ccccc23)oc1NCc1ccccc1,6.32
5,Cc1coc(NC(=O)CSc2nc(-c3ccncc3)cc(C(F)(F)F)c2C#N)n1,10.8
6,CN(C)c1ccc(CNc2ccc3c(c2)ncn3C)cc1,-0.566
7,COc1ccc(CN(C)C(=O)c2cc(-c3ccccc3)nc3ccc(C)cc23)c(OC)c1OC,13.1
8,O=C(O)CN1C(=O)CC(Cc2ccc(Cl)cc2)C1=O (centres unmarked),5.16
9,CCOc1cc2c(cc1/C=C/C(=O)O)OC(C)C2 (centres unmarked),6.95
10,CCn1nnnc1SCC(=O)N1CCc2ccccc21,8.56
11,CCOc1cc(/C=C2\C(=O)ON=C2C)ccc1OCc1ccccc1,13.2
12,COc1cc(CN(C(=O)c2cc3ccccc3oc2=O)C2CCS(=O)(=O)C2)cc(OC)c1OC (centres unmarked),3.48
13,O=C(Nc1ccccc1)Nc1nc2ccccc2s1,10.5
14,O=C(CCN1C(=O)c2ccccc2C1=O)Oc1ccc2ccccc2c1,8.07
15,O=C(Cc1ncc(C(F)(F)F)cc1Cl)NCCc1ccccc1,9.92
16,C#Cc1ccc([C@H]2C=C(C(=O)OCC=C)O[C@@H](OCCCCO)C2)cc1,13.9
17,Nc1nnc(-c2cn(-c3ccccc3)nc2-c2ccccc2)o1,5.27
18,Cc1cccc(-n2c(SCC(=O)NCc3ccco3)nnc2-c2ccco2)c1,-46
19,Cc1ccc2[nH]c3c(c2c1)CCNC3=O,6.12
20,O=C(CSc1nc2ccccc2c(=O)n1-c1ccc(OC(F)F)cc1)NCc1cccs1,-0.662
21,CN1CCN(c2ccc(CNC(=O)c3ccc4c(c3)OCCO4)cc2)CC1,-1.61
22,Cc1cc(C)nc(N(C#N)CC(=O)N(c2ccccc2)C(C)C)n1,12.9

row,Structure (SMILES),"hERG current change (%, negative = inhibition) at 1uM [%]"
1,O=C(COC(=O)c1ccc(=O)[nH]c1)Nc1cccc(S(=O)(=O)N2CCOCC2)c1,11.1
2,CCOC(=O)C1CCCN(S(=O)(=O)c2ccc3c(c2)C(C)(C)C(=O)N3C)C1 (centres unmarked),7.64
3,CC(C)OC(=O)c1cc2c(ccn2C)n1CC(=O)N1CCC(Cc2ccccc2)CC1,6.23
4,COCc1ccc(C(=O)N2CCN(CC(=O)N3CCCC3)CC2)cc1,-2.37
5,COc1ccc(C(=O)NCc2cccnc2)cc1S(=O)(=O)N1CCCc2ccccc21,0.682
6,CCOC(=O)c1c(NC(=O)CCNCc2ccco2)sc2c1CCC2.O=C(O)C(=O)O,2.71
7,CCOC(=O)CNc1ccc2c(c1)OCO2,17.2
8,CC(C)(C)c1cc(P(=O)(c2ccccc2)c2ccccc2)ccc1O,3.75
9,Cc1n[nH]c(C)c1S(=O)(=O)N1CCCC(C(=O)NCc2ccc(F)cc2)C1 (centres unmarked),6.29
10,CC(=O)OCC(OC(C)=O)C(OC(C)=O)C(OC(C)=O)C(=O)Nc1cccc(C)c1 (centres unmarked),20.4
11,CC(C)[C@H](NC(=O)C1CCCC1)c1nc2ccccc2[nH]1,13.4
12,Cc1cc(Br)ccc1NC(=O)c1ccc(-n2cncn2)c([N+](=O)[O-])c1,12.4
13,Cc1sc2ncn(CC(=O)N3CCN(c4ccccc4F)CC3)c(=O)c2c1S(=O)(=O)N1CCOCC1,6.78
14,CC(C(=O)OCc1nnc(-c2ccccc2)o1)N1C(=O)c2ccccc2C1=O (centres unmarked),-13.6
15,CCN(CC)c1ccc(S(=O)(=O)N(CC)CC)cc1NC(=O)c1cccnc1,-3.72
16,CCOC(=O)c1cc(C#N)c(SCc2cccc3ccccc23)nc1C,6.07
17,O=C(Nc1ccc2oc(Cc3ccc(Cl)cc3)nc2c1)c1cccnc1,-0.226
18,O=c1cc(-c2ccccc2Cl)oc2c(NS(=O)(=O)c3ccccc3C(F)(F)F)ccc(O)c12,11.6
19,CCOc1nc(N2CCCCC2)nc(-n2cc(-c3ccccc3)nn2)n1,11
20,Cc1c([N+](=O)[O-])cc(C(=O)NCc2ccc(F)cc2)cc1[N+](=O)[O-],-31.7
